# Test results taken from PubChem BioAssay AID1745853 (National Center for Advancing Translational Sciences (NCATS), 2022).
# This is one part of the list. Shown are side measurements of this screen, not its main read-out; they come without a call.
# Legend:
# Assay in all cases: Primary Screen for Target Class Profiling of Small Molecule Inhibitors of Methyltransferases
# [1] = target: Glycine N-methyltransferase (Homo sapiens) (UniProt Q14749); settings: purified enzyme, MTase-Glo SAH luminescence; measured here: GNMT inhibition; at 40 µM; stronger effect = lower value
# Outline: (§1)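 Each enzyme was reacted with SAM and its substrate, with compounds tested once at 40 uM; SAH formed was read by MTase-Glo luminescence.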
# [2] = target: Guanidinoacetate N-methyltransferase (Homo sapiens) (UniProt Q14353); settings: purified enzyme, MTase-Glo SAH luminescence; measured here: GAMT inhibition; at 40 µM; stronger effect = lower value
# Outline: as §1
# [3] = target: Histamine N-methyltransferase (Homo sapiens) (UniProt P50135); settings: purified enzyme, MTase-Glo SAH luminescence; measured here: HNMT inhibition; at 40 µM; stronger effect = lower value
# Outline: as §1
# [4] = target: Nicotinamide N-methyltransferase (Homo sapiens) (UniProt P40261); settings: purified enzyme, MTase-Glo SAH luminescence; measured here: NNMT inhibition; at 40 µM; stronger effect = lower value
# Outline: as §1
# [5] = target: Phenylethanolamine N-methyltransferase (Homo sapiens) (UniProt P11086); settings: purified enzyme, MTase-Glo SAH luminescence; measured here: PNMT inhibition; at 40 µM; stronger effect = lower value
# Outline: as §1
# % is set by controls: 0 for no effect and ±100 for the full control effect.
Structure (SMILES),"activity change, negative = inhibition [1] [%]","activity change, negative = inhibition [2] [%]","activity change, negative = inhibition [3] [%]","activity change, negative = inhibition [4] [%]","activity change, negative = inhibition [5] [%]"
CCNC1(C(N)=O)CCN(c2ncnc3c2nc(-c2ccccc2Cl)n3-c2ccc(Cl)cc2)CC1,-7.34,12.9,-3.12,-34,-6.29
CCc1ccc(CN2C(=O)c3cc(-c4ccc(OC)cc4)nn3CC2(C)C(=O)NCc2ccccc2OC)cc1 (stereo unspecified),-6.4,-0.828,-6.99,-9.86,-4.41
CC(C)=CCC[C@](C)(O[C@@H]1O[C@H](CO)[C@@H](O)[C@H](O)[C@H]1O)[C@H]1CC[C@]2(C)[C@@H]1[C@H](O)CC1[C@@]3(C)CC[C@H](O)C(C)(C)C3[C@@H](O[C@@H]3O[C@H](CO)[C@@H](O)[C@H](O)[C@H]3O[C@@H]3O[C@@H](C)[C@H](O)[C@@H](O)[C@H]3O)C[C@]12C (stereo partly specified),1.98,1.42,11.1,-13.8,-5.51
O=C(c1ccc(F)c(F)c1Nc1ccc(I)cc1F)N1CC(O)([C@@H]2CCCCN2)C1,4.99,15.8,11.9,-11.4,2.9
CCCn1c(=O)c2ccc(C(=O)NC(C)C)cc2n2c(=O)n(Cc3ccc(F)cc3Cl)nc12,-2.31,0.581,5.79,-2.05,4.95
CCCn1c(=O)c2ccc(C(=O)NC3CCCC3)cc2n2c(=O)n(CC(=O)Nc3ccccc3F)nc12,5.27,0,12,-0.938,5.84
COc1ccccc1CN1CCC(CN(CC(C)C)C(=O)C2C=CCN2)CC1 (stereo unspecified),-0.014,-0.115,-17.8,-3.28,2.33
CC1CCc2c(sc3nc(-c4cc5ccccc5oc4=O)nc(Cl)c23)C1 (stereo unspecified),,-6.8,,-17.4,-2.9
COc1cc2nc(N3CCCN(C)CC3)nc(NC3CCN(Cc4ccccc4)CC3)c2cc1OC,4.82,12.1,-67.6,-11.4,-1.7
COc1cc2nc(-c3cc4c(c(OC)c3)OCCNC4)cc(C)c2cc1OC,-7.6,-2.55,-9.95,-7.1,-22.6
CN(Cc1noc(C2CCCC2)n1)c1cc(C2CC(O)C2)ncn1 (stereo unspecified),1.05,3.32,3.31,-3.75,1.34
COc1ccc(-c2nc3ccccc3[nH]2)cc1,-73.1,-60.5,-71.7,-66.7,-76
COC(=O)c1c(NC(=O)c2ccccc2)c2cc(NC3CCOCC3)cnc2n1CC1CCCO1 (stereo unspecified),-2.09,1.26,2.33,0.185,4.45
CCCn1c(=O)oc2cc(NS(=O)(=O)c3ccc4c(c3)n(C)c(=O)n4C)ccc21,-9.09,0.838,14.1,-2.56,7.47
CC(=O)N1CCC(N[C@@H]2CO[C@H](CNC(=O)c3ccncc3)[C@H]2O)CC1,-3.04,-4.69,-0.362,-7.05,-3.65
Cc1nc(C)c(C(=O)N2CCC(C(=O)N3CCCCCCNC(=O)CC3)CC2)s1,-10.6,-3.4,-2.48,-13.6,-24.9
CCN1CCN(C(c2ccc(C)cc2)c2sc3nc(-c4ccco4)nn3c2O)CC1 (stereo unspecified),,1.01,,-6.87,6.73
CC(=O)O[C@H]1CC[C@@]2(CI)C(=CC[C@@H]3[C@@H]2CC[C@]2(C)[C@@H]([C@H](C)CCCC(C)C)CC[C@@H]32)C1,0.057,-5.05,11.9,-8.96,4.25
